Measured values taken from the RNAGym collection of RNA variant scans (doi:10.7554/elife.90254).
The source gives no read counts; variants with many changes may rest on few reads.

B1: LINE1-mini (parent)
chain: GGCAGAGCUCAACACAGCGUGGCAAAGUGGCUGUGGCUAGACUGCC

Variants of: B1
Assay: self-cleavage, relative activity (ratio to wild type); higher = more cleavage; in vitro, sequencing; the parent is a self-cleaving ribozyme

Variant	self-cleavage
GGCAGAGCUUAACACAGCGUGGGAAAGUGGCUGUGGCUACACUGCC [C10U C23G G40C]	0.03
GGCAGAGCUUAACACAGCGUGGUCUAGUGGCUGUGGCUAGACUGAC [C10U C23U A24C A25U C45A]	0.03
GGCAGAGCUUAACACAGCGUGGUAAAGCGGCUGUGGCUAGACUGCC [C10U C23U U28C]	0.4
GGCAGAGCUUAACACAGCGUGGCAAAGUGGAUGUGGCUUUACUGCC [C10U C31A A39U G40U]	0.04
GGCAGAGCUUAACACAGCGUGGCAAAGUGGAUGUGGCUAGACUGUC [C10U C31A C45U]	0.25
GGCAGAGCUUAACACAGCGUGGCAAAGUGGAUGUGGCUACACUACC [C10U C31A G40C G44A]	0.03
GGCAGAGCUUAACACAGCGUGGCAAAGUGGAUGGGGCUAGACUGCC [C10U C31A U34G]	0.01
GGCAGAGCUUAACACAGCGUGGCAAAGUGGAUGUGGCAAGACUGUC [C10U C31A U38A C45U]	0.03
GGCAGAGCUUAACACAGCGUGGCAAAGUGGUUGUGGCUAGACUGAC [C10U C31U C45A]	0.05
GGCAGAGCUUAACACAGCGUGGCAAAGUGGUUGUUGCUAGACUGCC [C10U C31U G35U]	0.07
GGCAGAGCUUAACACAGCGUGGCAAAGUGGUUGUGGCUAGACUUCC [C10U C31U G44U]	0.02
GGCAGAGCUUAACACAGCGUGGCAAAGUGGCUGUGGAUAGACUGAC [C10U C37A C45A]	0.01
GGCAGAGCUUAACACAGCGUGGCAAAGUGGCUGUGGUUAGACUUCC [C10U C37U G44U]	0.1
GGCAGAGCUUAACACAGCGUGGCAAAGUGGCUGUGGCUAGAUUGGC [C10U C42U C45G]	0.05
GGCAGAGCUUAACACAACGUGGCGAAGUGGCUGUGGCUUGACUGCC [C10U G17A A24G A39U]	0.52
GGCAGAGCUUAACACAAAGUGGCAAAGUUGCUCUGGCUAGACUGCC [C10U G17A C18A G29U G33C]	0.03
GGCAGAGCUUAACACAACGUGGCAAAGUGGCUCUGGCUAGACUGCG [C10U G17A G33C C46G]	0
GGCAGAGCUUAACACACCGUGGCUAAGUGGCUGUGGCUAGACUGCC [C10U G17C A24U]	0.82
GGCAGAGCUUAACACACAGUGGCAAAGUGGCUGUGGCUAGACUACC [C10U G17C C18A G44A]	0.03

Variant	self-cleavage
GGCAGAGCUUAACACACAGUGGCAAAGUGGCUGUGGCUAGACGUCC [C10U G17C C18A U43G G44U]	0.05
GGCAGAGCUUAACACACCGUGGCAAAGUGGAUGUGGCUAGACUGCC [C10U G17C C31A]	0.1
GGCAGAGCUUAACACACCAUGGCAAAGUGGAUGUGGCUAGACUGCU [C10U G17C G19A C31A C46U]	0.3
GGCAGAGCUUAACACACCCUGACAAAAUGGCUGUGGCUAGACUGCC [C10U G17C G19C G22A G27A]	0.15
GGCAGAGCUUAACACACCGUGGCAAAGUGGCUGUUGCUAGACUGCC [C10U G17C G35U]	0.04
GGCAGAGCUUAACACAUCGUGGCUAAGUGGCUGUCGCUAGACUGCC [C10U G17U A24U G35C]	0
GGCAGAGCUUAACACAUCGUGGCAACGUGGCUGUGGCUAGACUGCC [C10U G17U A26C]	0.71
GGCAGAGCUUAACACAUCGUGGCAAAGUGGCUGUGGCUUGACUGCC [C10U G17U A39U]	0.46
GGCAGAGCUUAACACAUUGUGGCAAAGUGGCUGUGGCUAGACAGCC [C10U G17U C18U U43A]	0.02
GGCAGAGCUUAACACAUCGUGGAAAAGUGGCUCUGGCUAGACUGCC [C10U G17U C23A G33C]	0
GGCAGAGCUUAACACAUCGUGGCAAAGUGGCUGUGGAUAAACUGCC [C10U G17U C37A G40A]	0
GGCAGAGCUUAACACAUCGUGGCAAAAUGGCUGUGGCUAGAACGCC [C10U G17U G27A C42A U43C]	0.03
GGCAGAGCUUAACACAUCGUGGCAAAGUGGCUGUAGCUAGACUGCC [C10U G17U G35A]	0.01
GGCAGAGCUUAACACAGCAUGGCAGAGUGGCUGUGGCUAGACUGAC [C10U G19A A25G C45A]	0.31
GGCAGAGCUUAACACAGCAUGGCAAAGUGGCUGUGGCUUGAGUGCC [C10U G19A A39U C42G]	0.04
GGCAGAGCUUAACACAGCAUACCAAAGUGGCUGUGGCUAGACUGCC [C10U G19A G21A G22C]	0.19
GGCAGAGCUUAACACAGCAUGGCAAAGUCGCUGUGGCUAGCCUGCC [C10U G19A G29C A41C]	0.01
GGCAGAGCUUAACACAGCAUGGCAAAGUGGCUAUGGCUAGACUUCC [C10U G19A G33A G44U]	0.06
GGCAGAGCUUAACACAGCAAGGCAAAGUGGCUGUGGGUAGACUGCC [C10U G19A U20A C37G]	0.02

Variant	self-cleavage
GGCAGAGCUUAACACAGCACGGCAAAGUGGCUGUGGGUAGAUUGCC [C10U G19A U20C C37G C42U]	0
GGCAGAGCUUAACACAGCCUGGCCAAGUGGCUGUGGCUAGACUGCC [C10U G19C A24C]	0.06
GGCAGAGCUUAACACAGCCUGGCUAAGUGGCUGUGGCUAGACUGCC [C10U G19C A24U]	0.12
GGCAGAGCUUAACACAGCCUAGCAAAGUGGCUGUGGCUAGACUGCC [C10U G19C G21A]	0.05
GGCAGAGCUUAACACAGCCUGGCAAAAUGGCUGUGGCUAGACUGCC [C10U G19C G27A]	0.07
GGCAGAGCUUAACACAGCCAGGUAAAGUGGCUGUGGCUAGACUGCC [C10U G19C U20A C23U]	0.12
GGCAGAGCUUAACACAGCUUGGCAUAAAGGCUGUGGCUAGACUGCC [C10U G19U A25U G27A U28A]	0.07
GGCAGAGCUUAACACAGCUUGGCAAAGUGGCUGUGGCUGGACUGUC [C10U G19U A39G C45U]	0.1
GGCAGAGCUUAACACAGCUUGGAAAAGUGGCUGUGGUUAGACGGCC [C10U G19U C23A C37U U43G]	0
GGCAGAGCUUAACACAGCUUGGAAAAGUGGCUGUGUCUACGCUGCC [C10U G19U C23A G36U G40C A41G]	0.01
GGCAGAGCUUAACACAGCUUUGCAAAGUCGCUGUGGCUAGACUGCG [C10U G19U G21U G29C C46G]	0.49
GGCAGAGCUUAACACAGCUUGGCAAAUUGCCUGUGGCUAGACUGCC [C10U G19U G27U G30C]	0.9
GGCAGAGCUUAACACAGCUUGGCAAAGUGGCUGUUGCUAGACCGCC [C10U G19U G35U U43C]	0.09
GGCAGAGCUUAACACAGCGUAGCACAGUGGCUGUGGCUAGACUGCC [C10U G21A A25C]	0.44
GGCAGAGCUUAACACAGCGUAGUAAACUGGCUGUGGCUAGACUUCC [C10U G21A C23U G27C G44U]	0.05
GGCAGAGCUUAACACAGCGUAGCAAAGUGGAUGUUGCUAGACUGCC [C10U G21A C31A G35U]	0.02
GGCAGAGCUUAACACAGCGUAGCAAAGUGGCUUUGGCUAGAAAGCC [C10U G21A G33U C42A U43A]	0.03
GGCAGAGCUUAACACAGCGUAGCAAAGAGGCUGUAGCUAGACUGCC [C10U G21A U28A G35A]	0.08
